The supplement of paper PMC12632987
Whole data set: some 2,300 sequences, median “median log2 fold change of GCK-ALFA target abundance (FLAG IP / Myc IP barcode read proportion)” near 0.095, cut for the lowest 2% near -0.47. The list shows a part of the results.

B1: LC3A_62_2057 (protein)
chain: MVKLKVDIIISTNTLEAAKEAYEKMKKFLEELEKKHPGVKSKVSLNEETNTVTVDVIIEAETREEALAIAKEIEDHAISIVDELDKKGVAAIVSIDREEL
B2: LC3A_free_46_2328 (protein)
chain: VKLNIDIDLLHEDKEKMEKAVKEIEEKIKEIAEKYNAKVKIEVEISKDPDGSYFAKINIEIEAETLEKAQEIKTEIIDSIEEIADKYGISYIISYEIEEL
B3: LC3A_3_1733 (protein)
chain: MEEILEEARKRLEELGFSEEVIEAALETIKALLEKGLEEEVKLLLETLEKIKDADEELILAYLKEIKELVETSKESKEELRKKVRELIKTLENDAEIEEL
B4: LC3A_13_338 (protein)
chain: TVKLEVETPEELREKGTAALEAHPGETIEITVTVKDFEEADAIAEVLSELMKLAAEKGNKINITIKGKRDVVTYLAVLVGSDAYELINKLDITITEEVVG
B5: LC3A_147_500 (protein)
chain: YKVEVDIDLLTKNDKELVEKLVKEIEEELKKKGKKVKVEVEFEKVDENTTYAHITITVEVETKEEAEETANLILDMIDEFIEANKDKILGSLISVSIEKK
B6: LC3A_132_272 (protein)
chain: GEEKAEKIKKELEKLIKELEENIDDLEKVKKLVKEIEELLKKAEKELSPELVAEVADHVADLADKVAEKYEAAGKEEEALLVENLSMYADGIRIEAELKL
B7: LC3A_3_1643 (protein)
chain: MEEEVERAEKLLKEAGASEETLEAFRETAELLKEKGFEEALKTLIEEVEKLKDLPSELLLDMLEEVLYLLKNEDLNEEEVIEKIKEIAKITLNESEIIEL
B8: LC3A_3_1692 (protein)
chain: MEELVKKVLEELKKIGADEETLKAAKELLDELKEKGYEKAIEELLKELKKLKNADSEILKDMFEDLLYKVKNENLSEEEVVELIKEEARVAKNEQEIEEL
B9: LC3A_3_1856 (protein)
chain: MDEIIAEALAYLKELGRSEETIAAAKELLEALKKKGFLEAAKTFLEELKKLENVSDEDLKEMFLELLKAVEEKDLNEEEAIELIKSEARVLLNAEEIEEL
B10: LC3A_28_832 (protein)
chain: SSVDARIAAFQAEVDAAVAAGVSQTFVVTITSEDTLEEVKKIMDAVREAAGKAASIPNQSIVIDLDGKIEQEKLDAILDAADEIEKEYPNVSVIIALPEE
B11: LC3A_free_8_2533 (protein)
chain: KREEFVNKALELLDEFEEEIRKKAKELGLDELDILDLELLIGSLKIEVVELRDKPMEEILKTIEEGLEEIIEEAKELSEELAEKVEELAEEILEELKEMM
B12: LC3A_28_1218 (protein)
chain: SHVEEQLEKARKEAEAALAKGEEALIEVTIPSTFTVEDVKKLMEGLKEIVEEAKDLPRISIIISFEAGVSQEVINAAAEGADEIEKKFPNVTVIIALDEE
B13: LC3A_28_882 (protein)
chain: SKALESAEKALEEVKKAVEAGDKEPLVLEVEAPSDEENTEKFLKLLEELAKEASKLPGVTIIVNIDSSVSQELRDKIIDKAEELEKKYPNVTIIIALPED
B14: LC3A_3_1793 (protein)
chain: AQARIDALLAELRAAGKSDETLAAVRAAATALADRGYEEALATFIEELRELIDAPDEILLDLAEEVLRLIEEEDLDEEELTERIKELAELARNEAEIIEL
B15: LC3A_28_1335 (protein)
chain: SLAEEIIEEAKKKLREVAEKGEPEVIEIEIPGSVTPEEARRIMDAILETAKELKLPKGTAIVINLDADVSQEVIDVVAEGAERIEEEVPGVTVIIALDEN
B16: LC3A_28_1076 (protein)
chain: SSVEEENKKLIEEAKKAREKGEPVVITVTVTDEDTEEDIKLKLETIREIGEILSEVKDAAIIIDLIGEKAKAHLPEFAKVAEEIEEKYPNVTVIIALDEE
B17: LC3A_3_1632 (protein)
chain: MEEEEEEALEALREAGASEETLEAFRETLKALKERGFYEAAKTLIEETRELADLPSEIRLDFLEDVLAIIKTEDLDEEEVIEEIKRLARIARSESEIIEL
B18: LC3A_28_1307 (protein)
chain: SPLRERFEAAIAEVRAAAAAGEPVVVTVDISAEELEEHLEEILELLDRLGEEASKAPGATIIVDVDESTKPENLKKLGERLEEIERRYPNVTVIIAIRDN
B19: LC3A_3_1575 (protein)
chain: MEERLREALERLREAGFSEEVIEAAERALRALLEKGAEEAAEILLETLLKLKDAPDELLIDLLEDVLRLAETDKGSLEELTEKVKELATTYLNESEIIEL
B20: LC3A_132_242 (protein)
chain: MEEKKEKLRKELEELLKKLKENIDNEEKVKELVKEIEELLKKAEKELSPEDALEIFEEVADRLDEIAEEAEKAGKEEVARTIENASMYADGLAIEQELKL
B21: LC3A_45_1959 (protein)
chain: MAVAEVLVLVPKEEFDKVLAIIERQVERINKERGLKASIDEEAVAKARKEAEENGEGLLTVTVESEDLDEALDAADEIADEIERESSPSVAVAIAYEEEP
B22: LC3A_28_1053 (protein)
chain: SAIDKQLEAALAEARAAAAAGEEALITLTIPENATEEDVEKVLATIREIAEITKDLPATTIIVDVDNKNQEEVTKKIDEVGEELAKKYPNVTVIIALSEN
B23: LC3A_free_39_2253 (protein)
chain: SDAEMEAIAAEAKAQLPAEAHPAVDRLLAAAKELGLSPETVKAFMDALLQAHSWGVDIAEIVETGIRALRELKAEGLSEEEITRLVVLEMELTAGSQYLE
B24: LC3A_28_685 (protein)
chain: SKTEEDLKKALEEAEEALKKGEPTVVRINVYGDVTEEELEKVLKALEEIAKILNKIPGSAIIVDIDADVDEEFEDKIIDKAEELEKKYPNVTIIIALEER
B25: LC3A_28_777 (protein)
chain: MDIEEEIEKAIEEAKKAKERGEEAVITIEVPDGATEEDIEKVIEGMEEIAEINKDMESTAIIIDIDSGVKQEHIDKLIDKGEEIEEKYPNVTVIFALDED
B26: LC3A_28_907 (protein)
chain: GSSLEEAKKALEEVEKKVKEGDEEPLVLEITAPSTEEDVEKFIELLEKLAKEADKLKGVSIIIDIDESVSEENKNKIIDKAEELEKKYPNVTVIIALPES
B27: LC3A_3_1532 (protein)
chain: LDEEVKETLELLKKAGASEEALEAFKEAAEELKKRGYENALKTLIEEAKELLNVPNDLFLDFFKEVLELIKNSDLSEEELVEKIKEIAKTTKNEAEIEEL
B28: LC3A_102_153 (protein)
chain: SAEEEIEKKKKEALEEIKKLIEKEKSLTEEEKAEALKLAKEALEAAIENAKTEAQHGFVDLVAEDKLEEALEKLEKISPEIAKKTKEKIEELKKLIKELA
B29: LC3A_28_770 (protein)
chain: MDIEEEVARAIEEAKEAVARGEETVITLTVPKGATEEDIEKAIEGLEEIAEIVKDMPSQSIIIDVESGVAQENLDKLMDKAEEIEKKYPNVTVIIALDED

These binders were tested against MAP1LC3A, Q9H492 (assay: median log2 fold change of GCK-ALFA target abundance (FLAG IP / Myc IP barcode read proportion) (log2 ratio); each designed protein is fused to an ALFA-tag nanobody in HEK293 cells to bring the named protein to FLAG-tagged glucokinase (GCK); Myc marks an untargeted standard; higher = target protein stabilised (more abundant)). Conditions: target protein: 3xFLAG-MCP-GCK-ALFA reporter; HEK293 landing pad (RPLP).
Method: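 LABEL-seq trans screen in HEK293 landing-pad cells. Each de novo designed 100-aa effector handle, binding the indicated effector (E3 ligase, DUB or autophagy protein), is fused to a constant NbALFA target handle and induced with 2 ug/mL doxycycline. A FLAG-MCP-GCK-ALFA target and a Myc-MCP standard reporter were transfected, and after 48 h circRNA barcodes were recovered by anti-FLAG and anti-Myc IP and sequenced. The value is the median across barcodes (at least 3 per design) of log2(FLAG/Myc read-proportion ratio), with the two transfection replicates pooled. Negative values mean degradation and positive values mean stabilisation of the target.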

Binder | median log2 fold change
B1 | 0.0926
B2 | 0.163
B3 | 0.278
B4 | 0.0888
B5 | -0.396
B6 | 0.157
B7 | 0.121
B8 | 0.26
B9 | 0.361
B10 | -0.0985
B11 | -0.133
B12 | 0.128
B13 | -0.094
B14 | 0.139
B15 | -0.177
B16 | 0.0639
B17 | 0.0896
B18 | 0.158
B19 | 0.156
B20 | -0.0828
B21 | 0.00723
B22 | -0.454
B23 | 0.124
B24 | -0.264
B25 | -0.0931
B26 | -0.387
B27 | 0.249
B28 | -0.137
B29 | -0.192
